Read counts are not given, so values of variants with three or more changes are uncertain.
B1: LINE1-mini (parent)
chain: GGCAGAGCUCAACACAGCGUGGCAAAGUGGCUGUGGCUAGACUGCC

Variants of: B1
Assay: self-cleavage, relative activity (ratio to wild type); higher = more cleavage; in vitro, sequencing; the parent is a self-cleaving ribozyme
In the case of GGCAGAGCUCAACAGAGCGUGGCAAAGUGGCUGUGGCUAGAUCGCC [C15G C42U U43C], the self-cleavage is reported as 0.
Variant GGCAGAGCUCAACAGAACGUAGCAAAGUGGCUGUGGCUAGACUGCC [C15G G17A G21A] has a self-cleavage of 0.13.
Work on GGCAGAGCUCAACAGAACGUGGCAAAGUGGCUGUGGCUAGACUCCC [C15G G17A G44C] yielded a self-cleavage of 0.03.
Variant GGCAGAGCUCAACAGACCGUGGCAAAGUGGGUGUGGCUAGACUUCC [C15G G17C C31G G44U] has a self-cleavage of 0.02.
For GGCAGAGCUCAACAGACCGUGGCAAAGUUGCAGUGGCUGGAUUGCC [C15G G17C G29U U32A A39G C42U], the self-cleavage was 0.03.
Variant GGCAGAGCUCAACAGACCGUGGCAAAGUGGCUGUGCCUAGACUGCC [C15G G17C G36C] has a self-cleavage of 0.07.
Variant GGCAGAGCUCAACAGAUCGUGGCUAAGUGGCUGGGGCUCGACUGCC [C15G G17U A24U U34G A39C] has a self-cleavage of 0.03.
In the case of GGCAGAGCUCAACAGAUCGUGGUAUAGUGGCUGUGGCUAGACUGCC [C15G G17U C23U A25U], the self-cleavage is reported as 0.01.
In the case of GGCAGAGCUCAACAGAGCAUGGCAAAGUGGCUGUGGCUGGGCUGCC [C15G G19A A39G A41G], the self-cleavage is reported as 0.03.
GGCAGAGCUCAACAGAGCCUGGCAAAGUGGCUGUGGCUAGACUCGC [C15G G19C G44C C45G] showed a self-cleavage of 0.
In the case of GGCAGAGCUCAACAGAGCUUGGCAAAGUGGCUGUGGCUAGGCUGCC [C15G G19U A41G], the self-cleavage is reported as 0.04.
For GGCAGAGCUCAACAGAGCUUGGAAAAGUGGCUGUGGCUAGACUGCC [C15G G19U C23A], the self-cleavage was 0.05.
Variant GGCAGAGCUCAACAGAGCUUGGCAAAGUGGCUGUGGGUAGACAGCC [C15G G19U C37G U43A] has a self-cleavage of 0.
Variant GGCAGAGCUCAACAGAGCUCGGCAAAGUGGCUGUGGCUAGACUGCC [C15G G19U U20C] has a self-cleavage of 0.03.
Work on GGCAGAGCUCAACAGAGCUUGGCAAAGUGGCUGUGGCUAGACCGCC [C15G G19U U43C] yielded a self-cleavage of 0.08.
For GGCAGAGCUCAACAGAGCGUAGCAAUGUGGCUGUGGCUAGACUGCC [C15G G21A A26U], the self-cleavage was 0.07.
Variant GGCAGAGCUCAACAGAGCGUAGCAAAGUGGCUGUGGCUAGACUGUC [C15G G21A C45U] has a self-cleavage of 0.03.
GGCAGAGCUCAACAGAGCGUAGCAAAUUGGCUUUGGCUAGACUGCC [C15G G21A G27U G33U] gave a self-cleavage of 0.4.
Work on GGCAGAGCUCAACAGAGCGUAGCAAAGUGUCUGUGGCUAGACUGCC [C15G G21A G30U] yielded a self-cleavage of 0.03.
GGCAGAGCUCAACAGAGCGUCGAAAAGUGGCUGAGGCUUGAUUGCC [C15G G21C C23A U34A A39U C42U] gave a self-cleavage of 0.03.
With GGCAGAGCUCAACAGAGCGUUGCAAAGUGGCUGUGGCUAGUCUGCC [C15G G21U A41U] the self-cleavage was 0.03.
In the case of GGCAGAGCUCAACAGAGCGUUGCAAAGUCGCUGUGGUUAGACUGCU [C15G G21U G29C C37U C46U], the self-cleavage is reported as 0.04.
For GGCAGAGCUCAACAGAGCGUUGCAAAGGGGCUGUGGCUAGACUACC [C15G G21U U28G G44A], the self-cleavage was 0.01.
With GGCAGAGCUCAACAGAGCGUGAAAAAGUGGCAGUGGCUAGACUGCC [C15G G22A C23A U32A] the self-cleavage was 0.07.
In the case of GGCAGAGCUCAACAGAGCGUGCCAAAGUGUCUGUGGCUAGACUGCA [C15G G22C G30U C46A], the self-cleavage is reported as 0.02.
Variant GGCAGAGCUCAACAGAGCGUGGCAAAAUGGCUUUGGGUACACUGCC [C15G G27A G33U C37G G40C] has a self-cleavage of 0.
Variant GGCAGAGCUCAACAGAGCGUGGCAAAAUGGCGGUGGCUAGACUGCC [C15G G27A U32G] has a self-cleavage of 0.01.
With GGCAGAGCUCAACAGAGCGUGGCAAACUGGCUGUGGCUGGAAUGCC [C15G G27C A39G C42A] the self-cleavage was 0.01.
GGCAGAGCUCAACAGAGCGUGGCAAACUGGCUGUUGCUAGACUGCC [C15G G27C G35U] showed a self-cleavage of 0.
Work on GGCAGAGCUCAACAGAGCGUGGCAAAGUGACUGUGGCUUGACUGCC [C15G G30A A39U] yielded a self-cleavage of 0.02.
Work on GGCAGAGCUCAACAGAGCGUGGCAAAGUGACUGUGGCUAGACUGUC [C15G G30A C45U] yielded a self-cleavage of 0.02.
Variant GGCAGAGCUCAACAGAGCGUGGCAAAGUGCCUGUGGAUUUAGGGCC [C15G G30C C37A A39U G40U C42G U43G] has a self-cleavage of 0.02.
GGCAGAGCUCAACAGAGCGUGGCAAAGUGCCUGUGUCUAGACUGGC [C15G G30C G36U C45G] showed a self-cleavage of 0.02.
Work on GGCAGAGCUCAACAGAGCGUGGCAAAGUGCCUGUGGCUACACUGCC [C15G G30C G40C] yielded a self-cleavage of 0.01.
GGCAGAGCUCAACAGAGCGUGGCAAAGUGCCUGUGGCAAGACUGCC [C15G G30C U38A] gave a self-cleavage of 0.03.
With GGCAGAGCUCAACAGAGCGUGGCAAAGUGUCUGCGCCUAGACAGCC [C15G G30U U34C G36C U43A] the self-cleavage was 0.01.
Variant GGCAGAGCUCAACAGAGCGUGGCAAAGUGGCUAUAGCUAGAUUGCC [C15G G33A G35A C42U] has a self-cleavage of 0.02.
GGCAGAGCUCAACAGAGCGUGGCAAAGUGGCUGUCGUUGGAGUGCC [C15G G35C C37U A39G C42G] gave a self-cleavage of 0.
GGCAGAGCUCAACAGAGCGUGGCAAAGUGGCUGUGCCUAGGCUGCC [C15G G36C A41G] gave a self-cleavage of 0.02.
For GGCAGAGCUCAACAGAGCGUGGCAAAGUGGCUGUGUUUAGACUGCC [C15G G36U C37U], the self-cleavage was 0.03.
For GGCAGAGCUCAACAGAGCGAUGCAAAGUGGCUGGGGCUAGACUGCC [C15G U20A G21U U34G], the self-cleavage was 0.01.
Variant GGCAGAGCUCAACAGAGCGCGGCAAUGUGGCUGCGGCUAAACUGCC [C15G U20C A26U U34C G40A] has a self-cleavage of 0.03.
For GGCAGAGCUCAACAGAGCGCGGCAAAGUGGCUGUGGCUAGACUGGC [C15G U20C C45G], the self-cleavage was 0.03.
Work on GGCAGAGCUCAACAGAGCGCGGCAAAGUGGCUGUGCCUAGACUGCC [C15G U20C G36C] yielded a self-cleavage of 0.11.
GGCAGAGCUCAACAGAGCGUGGCAAAGAGACUAUGGUUAGACUGCC [C15G U28A G30A G33A C37U] showed a self-cleavage of 0.01.
Variant GGCAGAGCUCAACAUCGCGUGGCAAAGUGGCUGUGGGUAGACUGCC [C15U A16C C37G] has a self-cleavage of 0.05.
For GGCAGAGCUCAACAUCGCGUGGCAAAGUGGCUGUGGCUAGACUGUC [C15U A16C C45U], the self-cleavage was 0.03.
GGCAGAGCUCAACAUCACGUGGCAAAGUGGCUGUGGCUAGACUGCC [C15U A16C G17A] showed a self-cleavage of 0.03.
Variant GGCAGAGCUCAACAUGGCGUGGCACAGCGGUUGUGGCUAGACUGUC [C15U A16G A25C U28C C31U C45U] has a self-cleavage of 0.01.
In the case of GGCAGAGCUCAACAUGGCGUGGCAGAGUUGCUGUGGCUAGACUGGC [C15U A16G A25G G29U C45G], the self-cleavage is reported as 0.02.
GGCAGAGCUCAACAUGGCGUGCCAAAGUGGCGGUGGCGAGACUGCC [C15U A16G G22C U32G U38G] showed a self-cleavage of 0.03.
GGCAGAGCUCAACAUGGCGUGGCAAAGCGGCUGUGGCUAGACUGCC [C15U A16G U28C] gave a self-cleavage of 0.07.
With GGCAGAGCUCAACAUUGCGUGGCAAAGUGUCUGUGGCUAGACUGCC [C15U A16U G30U] the self-cleavage was 0.04.
Variant GGCAGAGCUCAACAUUGCGUGGCAAAGUGGCUGUUGCUAGACUGCC [C15U A16U G35U] has a self-cleavage of 0.03.
GGCAGAGCUCAACAUAGCGUGGCGAAGUGGCUGUGGCUAGGCUGCC [C15U A24G A41G] gave a self-cleavage of 0.25.
For GGCAGAGCUCAACAUAGCGUGGCGAAGUGGCUGUGGCUAGACUACC [C15U A24G G44A], the self-cleavage was 0.2.

Reference: the RNAGym collection of RNA variant scans (doi:10.7554/elife.90254)
